From a compilation of properties of binary mixtures (doi:10.1007/s11814-016-0233-0)
Some of these densities may be calculated back from excess volumes.

Assay: xn = mol fraction of the nth substance listed
Details: 298.15 K, 100 kPa

What does the source list for `CCCCCCCCCCCCCC[P+](CCCCCC)(CCCCCC)CCCCCC.[Cl-]` + CCC(C)=O?
mass density (x2 = 0.198): 887.1 kg/m3; mass density (x2 = 0.2994): 885.4 kg/m3; mass density (x2 = 0.3986): 883.3 kg/m3; mass density (x2 = 0.4996): 880.3 kg/m3; mass density (x2 = 0.5997): 876.1 kg/m3; mass density (x2 = 0.7992): 860.1 kg/m3; mass density (x2 = 0.9001): 842 kg/m3; mass density (x2 = 0.95): 826.3 kg/m3

For `CC(=O)C(C)C` + CCCCCCCCCCCCCC[P+](CCCCCC)(CCCCCC)CCCCCC.[Cl-], which mass density (x1 = 0.0502) is on record?
Its mass density is 888.8 kg/m3.

And the mass density (x1 = 0.1995)?
Its mass density is 886.4 kg/m3.

And the mass density (x1 = 0.2994)?
Its mass density is 884.1 kg/m3.

What about the mass density (x1 = 0.4005) of the same molecule?
The mass density was 881.2 kg/m3.

What about the mass density (x1 = 0.5005) of the same molecule?
The mass density was 877.4 kg/m3.

And the mass density (x1 = 0.8)?
The mass density was 854.5 kg/m3.

And the mass density (x1 = 0.95)?
The mass density was 821.6 kg/m3.
